According to PubChem BioAssay AID463173 (ICCB-Longwood Screening Facility, Harvard Medical School, 2010):
About 4,300 (8.3%) of roughly 52,000 compounds were called active. Cut-off read from the data, not from the text of the source: active = survival mostly below about 52% (no sharp cut-off); inactive = mostly above about 56%. Some of the results follow.

What follows are molecules tested on DeltatarO mutant (assay: S. aureus survival, RN4220 and DeltatarO strains – OD600, teichoic acid synthesis inhibitors, primary screen (AID 463173)). Conditions: S. aureus RN4220 wild type/DeltatarO growth, OD600, 18 h, hits give low values, screened at 18.75 µg/mL (by protocol).

Compound	survival
CCOc1ccccc1NC(=O)Cn1c(=O)oc2ccccc21	inactive: 101%
CCOC(=O)c1c(-c2ccccc2)oc2ccc(OCc3ccccc3Br)cc12	active: 38%
COc1ccc(NC(=O)Cn2cc(C(=O)c3ccc(C)c(C)c3)c(=O)c3cc(OC)ccc32)cc1	inactive: 72%
COC(=O)c1scc(-c2ccc(C)cc2)c1S(=O)(=O)Nc1cc(C)c(Cl)cc1OC	inactive: 117%
Clc1cccc(CNCCCSc2nnnn2-c2ccccc2)c1	inactive: 68%
Cc1cc(C)c(C#N)c(N2CCC(C(N)=O)CC2)n1	inactive: 90%
Cc1cccc(N2CCN(C(=O)CCS(=O)(=O)c3ccc4c(c3)CC(=O)N4C)CC2C)c1 (stereo unspecified)	active: -2%
Cc1cccc(C(c2sc3nc(-c4ccco4)nn3c2O)N2CCOCC2)c1 (stereo unspecified)	inactive: 86%
CCCCOC(=O)c1ccc(NC(=O)c2ccc3c(c2)CCN3S(C)(=O)=O)cc1	inactive: 96%
CC(=O)N1CCN(c2csc3ccc(Cl)cc3c2=O)CC1	inactive: 95%
Cc1ccc(NS(=O)(=O)c2ccc3c(c2)n(C)c(=O)n3C)c(C)c1	inactive: 86%
CCCCCCN1C(=O)c2ccc(Br)cc2C1=O	inactive: 101%
Cc1ccc(NC(=O)Cn2cc3c(n2)CCCC3)cc1Cl	inactive: 87%
COc1ccc(C)c2sc(N(Cc3cccnc3)C(=O)c3cccs3)nc12	inactive: 88%
CCN1CCc2c(sc(-n3cccc3)c2C(C)NC(=O)Nc2ccc(C(=O)OC)cc2)C1 (stereo unspecified)	inactive: 94%
COc1ccc(CNS(=O)(=O)c2ccc(-c3cc(C(F)(F)F)on3)s2)cc1OC	inactive: 118%
COc1ccc(CNC(=O)c2nn(C)c3c2CSc2ccccc2-3)cc1	inactive: 73%
O=C(Nc1cccc(F)c1)c1cnc2sc(N3CCCC3)nn2c1=O	inactive: 71%
COc1cc(C2C=C(C(=O)O)Nc3ncnn32)ccc1O (stereo unspecified)	inactive: 88%
CCOc1ccc2c(c1)c(=O)c(C(=O)c1ccc(CC)cc1)cn2CC(=O)Nc1ccc2c(c1)OCCO2	inactive: 65%
O=C(CSCCO)N1CCc2ccccc21	inactive: 102%
COc1cccc(NC(=O)Cn2c(=O)n(CCC(=O)NCc3ccccc3OC)c(=O)c3ccccc32)c1	inactive: 72%
COc1ccc(Cl)cc1NC(=O)Cn1c(=O)n2nc(-c3ccccc3)nc2c2ccccc21	inactive: 78%
Cc1ccccc1C(=O)NC1CCN(Cc2nnnn2Cc2ccccc2)CC1	inactive: 87%
CCc1cccc(C)c1Nc1nn2c(=O)c3ccccc3nc2s1	inactive: 94%
COc1ccc(N(C)S(=O)(=O)c2ccc3c(c2)CCN3C(=O)CCC(=O)O)cc1	inactive: 87%
